About 14,000 (4.5%) of roughly 310,000 compounds showed an effect of 50% or more. Effects have a minus sign here. The list shows a part of the results.
Biological target: human ether-à-go-go-related gene (hERG) potassium channel (human, UniProt Q12809)
Experiment: primary screen, population patch clamp on CHO cells stably expressing hERG
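Further: peak tail current of the secondary pulse compared with the same well before compound.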

Sequence of human ether-à-go-go-related gene (hERG) potassium channel (Q12809 whole entry, looked up): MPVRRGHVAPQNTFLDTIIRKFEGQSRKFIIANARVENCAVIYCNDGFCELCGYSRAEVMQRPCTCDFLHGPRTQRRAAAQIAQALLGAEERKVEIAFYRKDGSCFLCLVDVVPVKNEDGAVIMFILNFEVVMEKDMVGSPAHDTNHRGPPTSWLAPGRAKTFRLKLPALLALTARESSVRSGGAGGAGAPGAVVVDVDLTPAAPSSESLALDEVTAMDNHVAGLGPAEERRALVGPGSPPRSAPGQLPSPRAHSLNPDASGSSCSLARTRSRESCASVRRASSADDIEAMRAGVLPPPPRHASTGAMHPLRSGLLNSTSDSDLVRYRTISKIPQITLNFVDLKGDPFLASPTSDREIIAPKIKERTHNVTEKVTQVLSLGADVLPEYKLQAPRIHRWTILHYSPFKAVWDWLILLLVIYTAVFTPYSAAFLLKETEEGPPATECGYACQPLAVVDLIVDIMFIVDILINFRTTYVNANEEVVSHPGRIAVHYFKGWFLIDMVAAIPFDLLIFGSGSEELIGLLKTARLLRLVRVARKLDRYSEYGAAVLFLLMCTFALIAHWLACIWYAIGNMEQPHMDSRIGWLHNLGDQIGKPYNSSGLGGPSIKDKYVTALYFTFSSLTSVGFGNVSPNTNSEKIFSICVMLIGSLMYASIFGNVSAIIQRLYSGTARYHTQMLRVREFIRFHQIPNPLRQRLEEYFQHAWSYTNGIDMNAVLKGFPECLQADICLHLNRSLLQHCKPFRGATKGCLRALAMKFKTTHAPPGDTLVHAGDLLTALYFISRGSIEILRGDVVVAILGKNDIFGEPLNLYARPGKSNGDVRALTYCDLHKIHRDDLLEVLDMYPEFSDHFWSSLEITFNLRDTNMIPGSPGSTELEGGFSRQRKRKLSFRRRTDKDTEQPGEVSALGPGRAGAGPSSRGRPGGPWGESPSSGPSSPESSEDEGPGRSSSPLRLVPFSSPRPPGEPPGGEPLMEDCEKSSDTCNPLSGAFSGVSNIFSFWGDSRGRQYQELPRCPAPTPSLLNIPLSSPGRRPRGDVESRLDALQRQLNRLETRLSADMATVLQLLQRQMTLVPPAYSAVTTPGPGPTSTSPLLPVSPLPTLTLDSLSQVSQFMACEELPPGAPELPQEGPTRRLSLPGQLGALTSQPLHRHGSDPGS

In order of rising “hERG current change (%, negative = inhibition) at 10uM” value:
1. COc1ccc(C(=O)NC(C)c2ccncc2)cc1S(=O)(=O)N(C)Cc1ccccc1 (centres unmarked)  -61%
2. FC(F)(F)c1cccc(N2CCN(Cc3ccoc3)CC2)c1  -60.4%
3. CCN1CCc2c(sc(NC(=O)c3cc4ccccc4cc3OC)c2C(N)=O)C1.Cl  -46%
4. O=[N+]([O-])c1ccc(C[n+]2cc(-c3ccccc3)n3c2CCCCC3)cc1.[Br-]  -35.3%
5. Cc1ccccc1C1=NCC(=O)N(CC(=O)NCc2ccco2)c2sc3c(c21)CCCC3  -32.8%
6. O=C(c1ccc(Br)cc1)c1cc([N+](=O)[O-])ccc1N1CCOCC1  -30.7%
7. COc1ccccc1CNC(=O)CCCN1C(=O)COc2ccc(C)cc21  -26%
8. CN(C)S(=O)(=O)c1ccc(Cl)c(NC(=O)CN2CCCCCC2)c1  -24.6%
9. N#Cc1c2n(c3c(=O)n(Cc4ccc(Cl)cc4)cnc13)CCCCC2  -23.7%
10. COc1ccc(-c2c(C)nn(-c3ccccc3)c2N)cc1  -19.9%
11. CC(=O)[C@H]1[C@H](CCc2ccccc2)NC(=O)N(Cc2ccccc2)[C@@H]1C  -17.8%
12. CCN1CCN(C(=O)CN(CC)S(=O)(=O)c2ccc(Cl)cc2)CC1  -13.3%
13. O=C(NCc1ccccc1)NC(=O)c1ccccc1  -11.1%
14. O=C(CN1CCCC1)N1c2ccccc2Sc2ccccc21  -10.1%
15. CN(C)c1ccc(CC2C(=O)Nc3ccccc32)cc1 (centres unmarked)  -10%
16. CCCCN(CC)C(=O)c1cc2cc3ccc(Cl)cc3nc2o1  -9.93%
17. O=S(=O)(NC1CCCC1)c1cc(F)ccc1F  -8.75%
18. Cc1nn(CC(O)Cn2cnc3c2c(=O)n(C)c(=O)n3C)c(C)c1Br (centres unmarked)  -8.63%
19. CC1(C)CC(C)(O)P(=O)(c2ccccc2)O1 (centres unmarked)  -6.77%
20. O=C(CCc1ccccc1)Nc1ccc(S(=O)(=O)Nc2nccs2)cc1  -6.34%
21. CC(C(=O)N1c2ccccc2CCc2ccccc21)n1nnc(-c2ccc(N(C)C)cc2)n1 (centres unmarked)  -3.29%
22. COc1ccc(CCC(=O)Nc2nc(C)c(C(=O)N(C)C)s2)cc1  -2.23%
23. O=C(NN=C1CCCCCC1)c1cn(-c2ccccc2)nc1-c1ccccc1  -2.15%
24. CCOc1ccc(-n2c(SCC(N)=O)nnc2-c2ccco2)cc1  -1.15%
25. COc1cc(/C=N/N2CCN(C3c4ccccc4-c4ccccc43)CC2)ccc1O  -0.366%
26. COC(=O)C1=C(c2ccc(S(C)(=O)=O)cc2)C[C@@H]2CC[C@H]1N2C  0.0714%
27. Br.CC1=CS(=O)(=O)CC1Sc1nc2ccccc2[nH]1 (centres unmarked)  1.22%
28. Cc1ccc(NC2=NCCC2)cc1Cl  1.29%
29. COC(=O)c1ccc(CNCC(=O)Nc2ccc(C(=O)OC)cc2)cc1  1.47%
30. COc1ccc(CC(=O)Nc2c3c(nn2C(C)(C)C)CS(=O)(=O)C3)cc1OC  1.84%
31. O=C(O)CN1C(=O)/C(=C2\SC(=S)N(C(Cc3ccccc3)C(=O)O)C2=O)c2ccccc21 (centres unmarked)  2.15%
32. C/C(=C/C=C/[C@@H](C)C(=O)O)[C@H]1CN[C@H](C(=O)O)[C@H]1CC(=O)O  2.57%
33. N#C/C(=C\c1ccccc1)c1n[nH]c(Cn2cncn2)n1  3.6%
34. O=C(OCc1nnc(-c2cccs2)o1)c1cccnc1Cl  4.2%
35. CC(=O)n1c2c(c3ccccc31)OC(N)=C(C#N)C2c1ccc(C(C)C)cc1 (centres unmarked)  4.51%
36. Cc1noc(/C=C/N(C)C)c1S(=O)(=O)N1CCCC(C(=O)Nc2ccccc2F)C1 (centres unmarked)  5.26%
37. O=C1CCCN1c1ccc(Br)cc1  5.28%
38. Cc1c(-n2c(SCC(=O)C(C)(C)C)nc3ccccc3c2=O)c(=O)n(-c2ccccc2)n1C  5.58%
39. COc1cc(O)c(C(CC(=O)N2CCOCC2)c2ccc3c(c2)OCO3)c(OC)c1 (centres unmarked)  7.98%
40. O=C(NC1CCCCC1)C1CCN(c2ncccn2)CC1  8.05%
41. CC1CCCCN1C(=O)CSc1nnc2c(n1)[nH]c1ccc(F)cc12 (centres unmarked)  8.32%
42. Cc1cc(N2C3CCC2CC(O)(c2ccc(F)cc2)C3)nc(-c2ccccc2)n1 (centres unmarked)  8.4%
43. Cc1cccc(NC(=O)COC(=O)CCc2ccc(S(=O)(=O)N3CCOCC3)cc2)c1C  8.89%
44. O=C(Cc1ccc(F)cc1)Nc1nccs1  9.75%
45. COc1cc2c(cc1OC)C(C(=O)NC(C)c1ccccc1)CC(=O)N2 (centres unmarked)  10.4%
46. CC1(C)Oc2ccc3ccc(=O)oc3c2/C(=C/O)C1=O  10.5%
47. CC(C)c1nnc(NC(=O)c2cccnc2)s1  10.7%
48. NC[C@H](Cc1ccccc1)NCCCCC1CCCCC1  11.3%
49. COc1ccc(S(=O)(=O)N2CCOC2CNC(=O)C(=O)NCCN(C)C)cc1 (centres unmarked)  13.2%
50. CC(=O)Nc1c2c(nn1-c1ccc(F)cc1)CSC2  13.8%
51. Cc1cc(C)nc(/N=C(\NC(=O)C(C)(C)C)Nc2ccccc2)n1  18.6%
52. N#C/C(=C(/O)c1ccc([N+](=O)[O-])s1)c1nc2ccccc2[nH]1  19.7%
53. Cc1occc1C(=O)NNC(=O)C(c1ccccc1)c1ccccc1  19.7%
54. O=C(CSc1nc2ccccc2c(=O)n1-c1ccc(F)c(Cl)c1)Nc1cccc(S(=O)(=O)N2CCOCC2)c1  21.8%
55. O=C(CC1SC(N2CCCCC2)=NC1=O)Nc1ccc(C(=O)O)cc1 (centres unmarked)  22.1%
56. COc1cc(N(C)C)c([N+](=O)[O-])cc1C(=O)N1CCOCC1  30.2%

— PMC4336329 (PLoS ONE, 2015)
